# Test results taken from the RNAGym collection of RNA variant scans (doi:10.1093/nar/gkz1192).
# Read counts are not given, so values of variants with three or more changes are uncertain.
# B1: CPEB3 Ribozyme (parent)
# chain: UAACAGGGGGCCACAGCAGAAGCGUUCACGUCGCAGCCCCUGUCAGAUUCUGGUGAAUCUGCGAAUUCUGCUGUAUAUCUC
# Variants of: B1
# Assay: self-cleavage, relative activity (ratio to wild type); higher = more cleavage; in vitro, sequencing
# Procedure, shortened: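 For each CPEB3 ribozyme variant, relative activity is its cleaved/total read fraction divided by the unmutated ribozyme's. Barcoded error-prone PCR libraries were transcribed by T7 RNA polymerase (5 hours, 37°C) and held in DNase I for 15 min before an EDTA stop, with cleavage occurring throughout. Template-switching reverse transcription and Illumina sequencing were used to read the RNAs. A 5-read minimum applied, and results are the mean of three batches.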
row,Variant,self-cleavage
1,A13G U41C G61A A77G,0.36
2,A13G U41C U43C U54C U74C,0.33
3,A13G U41C U43G A45U U48C U72A,0.13
4,A13G U41C U48C U60G,0.13
5,A13G U41C U58G,0.14
6,A13G U41C U60C U74C U78C,0.17
7,A13G U41C U74C A75U,0.93
8,A13G U41C U76C,0.91
9,A13G U41C U80C,0.93
10,A13G U41G U43C G70U U72A U80C,0.47
11,A13G U41G U49C A56U,0.16
12,A13G U41G U49C A65G,0.15
13,A13G U43A A45U U69C,0.2
14,A13G U43A U48C U49C U72C,0.31
15,A13G U43A U49C U72C,0.24
16,A13G U43C A45U G63A A64G,0.22
17,A13G U43C A45U U54C,0.3
18,A13G U43C A57U U67A,0.09
19,A13G U43C A64G A77G,0.26
20,A13G U43C C59A U60A A75U U80C,0.32
21,A13G U43C U48A A77U,0.18
22,A13G U43C U51A,0.79
23,A13G U43C U51A A64U U78C,0.23
24,A13G U43C U54A,0.66

row,Variant,self-cleavage
1,A13G U43C U54C A65G,0.24
2,A13G U43C U54C C71G U74G,0.08
3,A13G U43C U66C,0.18
4,A13G U43C U67A,0.09
5,A13G U48A U51A U60C U72G,0.16
6,A13G U48A U78C U80G,0.47
7,A13G U48C A56G A64G U72C,0.17
8,A13G U48C A57G,1.12
9,A13G U48C A57G U72G A77U,0.82
10,A13G U48C G55U U58C,0.18
11,A13G U48C G63C,0.22
12,A13G U48C U54A A56U A65G,0.13
13,A13G U48C U54C,0.43
14,A13G U48C U58C U80C,0
15,A13G U48C U60C,0.08
16,A13G U49A A57G U66C,0.11
17,A13G U49A G70U A75C,0.16
18,A13G U49C A64G A65G,0.08
19,A13G U49C A65U,0.2
20,A13G U49C C59G A77G,0
21,A13G U49C U60A,0.11
22,A13G U49C U76A,0.22
23,A13G U51A A64U,0.23
24,A13G U51A U54C,0.75

row,Variant,self-cleavage
1,A13G U51A U60C G70A,0.16
2,A13G U51A U66C,0.25
3,A13G U51A U80C,0.96
4,A13G U51C A64G U72A,0.15
5,A13G U51C U54A,0.92
6,A13G U51C U72C U78C U80C,0.51
7,A13G U51G U54C U80C,1.09
8,A13G U54A A65G,0.34
9,A13G U54A U74A,1.11
10,A13G U54C A57G,0.47
11,A13G U54C A64U,0.2
12,A13G U54C A77U,1.14
13,A13G U54C U60A U74C,0.25
14,A13G U54C U69C U74A U80A,0.54
15,A13G U54G A64G U67A U72C U74C,0.12
16,A13G U66A U67A U69A,0.22
17,A13G U66C U72C,0.36
18,A13G U66G U67C,0.65
19,A13G U67A U69C,0.16
20,A13G U67C A77U,0.14
21,A13G U69C A75G,0.14
22,A13G U69C U78C,0.33
23,A13G U72A A75G U78C,1.25
24,A13G U74C U76G,0.8

row,Variant,self-cleavage
1,A13U A15C A45G,0.59
2,A13U A15C G33A C81A,0.27
3,A13U A15C U54A,0.98
4,A13U A15C U80A,0.84
5,A13U A15G A18G A47G A57G U76C,0.06
6,A13U A15G A18U C39G,0.14
7,A13U A15G A18U C39G U43C A56G,0.05
8,A13U A15G A18U U25C U67C A77G,0.05
9,A13U A15G A21G U25C U41C U69C,0.08
10,A13U A15G A28G A56U U60A C68G,0.15
11,A13U A15G A56U,0.4
12,A13U A15G A64G U67C,0.42
13,A13U A15G C32U,0.4
14,A13U A15G C34U A45G A56G U74C,0.27
15,A13U A15G C37A C39A U60C U69G,0.13
16,A13U A15G C44A U60C A64G,0.11
17,A13U A15G C62U U66C U69A A75G,0.5
18,A13U A15G G24A U25A U41C,0.38
19,A13U A15G G24C G46U U54A A65G,0.08
20,A13U A15G G30A G46U A56U U58C A64G,0.1
21,A13U A15G U25A C27U,0.05
22,A13U A15G U26A U48C C59A C62G U69C,0.09
23,A13U A15G U41A U67C,0.16
24,A13U A15G U41C G46A U80C,0.39

row,Variant,self-cleavage
1,A13U A15G U43A U66C,0.36
2,A13U A15G U51A,1.09
3,A13U A15G U74A,1.18
4,A13U A15G U74C,1.12
5,A13U A15U A18G A21G U60C U72C,0.23
6,A13U A15U A18U U31C G52C U60A,0.06
7,A13U A15U A20C A45G A57G A65G C68U,0
8,A13U A15U A77G,0.59
9,A13U A15U C17U A20C U41C A45U U60C,0.05
10,A13U A15U U25C A45G,0.22
11,A13U A15U U31A G73A,0.92
12,A13U A15U U31A U54A G61A,0.04
13,A13U A15U U41A U54C A65G U67A,0.07
14,A13U A15U U54A U69C,0.09
15,A13U A15U U80A,1
16,A13U A18C C34A,0.38
17,A13U A18G A20G U31C A45U U67C U80C,0.05
18,A13U A18G A20U A35G A75G,0.3
19,A13U A18G A35G U54A A57U C59A U67C,0.24
20,A13U A18G A35G U54A C59A U67C,0.51
21,A13U A18G A35U U49A A57U A75G A77G,0.06
22,A13U A18G A45U U80G,0.37
23,A13U A18G C27U U31C A35C G63A U80A,0.84
24,A13U A18G C40U A56G U60A,0.19

row,Variant,self-cleavage
1,A13U A18G C68U,0.47
2,A13U A18G G19A A20U G30U G33A U58C,0.19
3,A13U A18G G33C U69A,0.07
4,A13U A18G G63A U69C,1.26
5,A13U A18G U25C U26A U41C U60C,0.04
6,A13U A18G U25G U49C U67A,0.08
7,A13U A18G U26C,0.15
8,A13U A18G U26C U31A U72A,0.04
9,A13U A18G U26C U51C,0.56
10,A13U A18G U31A A45G C62A U80C,0.16
11,A13U A18G U41A A56G U60C U67C U69A,0.15
12,A13U A18G U41A G52A U80G,0.3
13,A13U A18G U41G A65G U72A,0.04
14,A13U A18G U43C A45G,0.33
15,A13U A18G U43C U48C,0.08
16,A13U A18G U54C A64G,0.14
17,A13U A18G U66A U76A,0.4
18,A13U A18U A20U U41A U51C U60A A75U,0.1
19,A13U A18U A21G C44A,0.28
20,A13U A18U A28C U43A,0.17
21,A13U A18U A35G A47U U48C,0.12
22,A13U A18U A35G A56G,0.59
23,A13U A18U A45G,0.24
24,A13U A18U A45G A56G,0.18

row,Variant,self-cleavage
1,A13U A18U A45U A56G A77G,0.04
2,A13U A18U A45U U80C,0.34
3,A13U A18U A47G,0.33
4,A13U A18U A47G A65G,0.16
5,A13U A18U G33C A35G,0.14
6,A13U A18U G42A U49A U51C G61A,0.04
7,A13U A18U U41C U51C U60A,0.35
8,A13U A18U U43A U51A,0.6
9,A13U A18U U51A G70A U72C,0.22
10,A13U A18U U54A U72C,0.52
11,A13U A20C U48C A64U,0.17
12,A13U A20C U54C A56U A64G U72C A75G,0.15
13,A13U A20G A21G U26C,0.06
14,A13U A20G A21G U43C A47G,0.33
15,A13U A20G A65G,0.26
16,A13U A20G C40U,1.05
17,A13U A20G C44U U60C,0.09
18,A13U A20G C68A,0.16
19,A13U A20G G30A U31G A57U,0.07
20,A13U A20G U25A U26A A56G U78C,0.06
21,A13U A20G U26A A35U U51C U69A U78C,0.05
22,A13U A20G U26C A57G U69C,0.09
23,A13U A20G U26C U60C,0.18
